Results: PubChem BioAssay AID1468 (National Center for Advancing Translational Sciences (NCATS), 2008)
In all, about 280,000 compounds went through this assay and about 1,100 (0.39%) were called active. Inconclusive means that the source gave no clear call. Such entries were picked first, then a sample of the others. Calls follow the shape of the dose curve; as a rule, active = well fitted inhibition curve with a large enough effect; inconclusive = small, poorly fitted or top-dose-only effect, or effect the other way; inactive = flat fitted curve, though single readings scatter. Potencies beside an inconclusive call are fits to weak or partial responses and may not hold up.

These molecules were tested against Microtubule-associated protein tau (Homo sapiens) (UniProt P10636) (assay: qHTS for Inhibitors of Tau Fibril Formation, Fluorescence Polarization). Conditions: K18 P301L tau heparin fibrillization, Alexa594 FP, 6 h; series mostly up to 57.7 µM.
Chain of UniProt P10636 (P10636 whole entry, looked up): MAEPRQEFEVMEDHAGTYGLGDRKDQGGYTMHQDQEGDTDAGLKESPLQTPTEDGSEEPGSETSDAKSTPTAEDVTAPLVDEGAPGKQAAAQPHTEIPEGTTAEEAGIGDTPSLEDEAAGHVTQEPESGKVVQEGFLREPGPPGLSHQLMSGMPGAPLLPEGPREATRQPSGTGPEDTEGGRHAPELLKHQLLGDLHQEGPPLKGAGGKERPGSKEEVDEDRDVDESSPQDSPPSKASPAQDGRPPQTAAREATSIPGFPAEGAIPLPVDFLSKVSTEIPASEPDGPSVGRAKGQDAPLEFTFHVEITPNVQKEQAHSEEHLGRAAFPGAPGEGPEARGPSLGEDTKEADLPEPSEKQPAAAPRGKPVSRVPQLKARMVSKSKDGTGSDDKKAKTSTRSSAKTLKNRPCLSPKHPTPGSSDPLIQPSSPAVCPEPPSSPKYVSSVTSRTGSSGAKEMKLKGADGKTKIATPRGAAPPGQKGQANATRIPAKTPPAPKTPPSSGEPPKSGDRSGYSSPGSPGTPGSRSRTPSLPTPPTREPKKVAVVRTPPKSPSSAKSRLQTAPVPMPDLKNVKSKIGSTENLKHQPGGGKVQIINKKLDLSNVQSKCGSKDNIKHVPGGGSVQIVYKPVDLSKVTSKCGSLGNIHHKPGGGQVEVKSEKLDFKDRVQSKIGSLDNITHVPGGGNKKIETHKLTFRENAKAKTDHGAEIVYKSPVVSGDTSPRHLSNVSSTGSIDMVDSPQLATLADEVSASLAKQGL
Outline: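 Quantitative HTS format: compounds meet 15 uM recombinant K18 P301L tau and Alexa 594-tau tracer in 100 mM sodium acetate pH 7; 20 uM heparin triggers fibrillization at 37 C over 6 hr; FP gives the signal.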
Also: nearly all actives have a fitted effect of over 55% in size.
Potency is read from the fitted curve at half-maximal effect; tags tell the direction and shape of the fitted curve.

Potency, inactive:
Nc1cc(=O)[nH]c(SCC(=O)N2CCCc3ccccc32)n1, O=C(NC(NNc1ccc([N+](=O)[O-])cc1)(C(F)(F)F)C(F)(F)F)c1ccc(Cl)cc1, O=C(O)Cn1nc(-c2ccccc2)oc1=O, CN(C)c1ccc(O)c2c1C[C@@H]1C[C@H]3C(N(C)C)C(=O)C(C(N)=O)=C(O)[C@@]3(O)C(=O)C1=C2O (some centres undefined), CCOc1ccc(C(=O)NC(=S)NCc2cccnc2)cc1, Nc1cc(S(=O)(=O)Nc2cc(Cl)ccc2Cl)ccc1N1CCCC1, Cc1ccccc1C(=O)c1c[nH]c(C(=O)NCC2CCCO2)c1 (centres undefined)

Potency, inconclusive:
CCOC(=O)c1cc(CC)sc1/N=C/C1=C(O)CCCC1=O 0.447 µM [inhibitor, full curve, poor fit], COc1ccc(OC)c(-c2cc(C(=O)Nc3cc(C)on3)no2)c1 25.1 µM [inhibitor, single point], Cc1ccc(Nc2nc(-c3ccc(S(=O)(=O)N4CCCC4)cc3)cs2)cc1C 3.16 µM [activator, full curve], COc1cccc(Cn2cccc(NC(=O)Nc3cccc(C#N)c3)c2=O)c1 39.8 µM [inhibitor, single point], CCOc1ccc(OCC(=O)c2c(O)c3ccccc3oc2=O)cc1 20 µM [inhibitor, partial curve, poor fit], COc1ccc(-c2cc(C(F)(F)F)nc(SCC(=O)Nc3ccc(C(C)=O)cc3)n2)cc1 14.1 µM [inhibitor, partial curve], CCOC(=O)C1CCN(c2ncnc3c2c(-c2ccccc2)cn3-c2ccc(C)c(Cl)c2)CC1 25.1 µM [activator, single point], Cc1ccccc1OCCNc1cc(N2CC(C)NC(C)C2)ccc1[N+](=O)[O-] (centres undefined) 39.8 µM [inhibitor, single point], O=C1NC(=O)C(c2ccccc2)(c2ccccc2)N1 39.8 µM [inhibitor, single point], Cc1nc2ccccc2c2c1C(=O)N(C)C2=O 44.7 µM [activator, single point], O=C(O)c1ccccc1NC(=O)N1c2ccccc2Sc2ccccc21 17.8 µM [activator, single point], CCOC(=O)C1CCCN(C(=O)C2CCN(S(=O)(=O)c3c(C)noc3/C=C/c3ccc(C)cc3)CC2)C1 (centres undefined) 44.7 µM [inhibitor, single point]
